# Measurements from the supplement of paper PMC8728848.
# The list shows a part of the results.
# B1: 3FTT (Staphylococcus aureus), Q5HCZ5 (protein)
# chain: MTEKEKMLAEKWYDANFDQYLINERARAKDICFELNHTRPSATNKRKELIDQLFQTTTDNVSISIPFDTDYGWNVKLGKNVYVNTNCYFMDGGQITIGDNVFIGPNCGFYTATHPLNFHHRNEGFEKAGPIHIGSNTWFGGHVAVLPGVTIGEGSVIGAGSVVTKDIPPHSLAVGNPCKVVRKIDNDLPSETLNDETIK
# Experiments:
# Test in all cases: glycan array binding signal (z-score within array); higher = stronger binding
# Details in all cases: glycan notation: IUPAC condensed, linker removed
# Fuc(a1-2)Gal = target: Fuc(a1-2)Gal
# How it was run: (§1)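 Glycan array data came from 3228 arrays in the Consortium for Functional Glycomics database, and only arrays with an available protein sequence were kept. Glycan names were put into IUPAC-condensed notation, and columns mapping to the same glycan were averaged. The binding signal is a within-array Z-score, averaged across arrays of one protein sequence run at different concentrations or buffers and across linkers. A negative Z-score can be read as non-binding.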
# Fuc(a1-2)Gal(b1-3)GalNAc = target: Fuc(a1-2)Gal(b1-3)GalNAc
# How it was run: as §1
# [1] = target: Fuc(a1-2)Gal(b1-3)GalNAc(a1-3)[Fuc(a1-2)]Gal(b1-4)Glc
# How it was run: as §1
# [2] = target: Fuc(a1-2)Gal(b1-3)GalNAc(a1-3)[Fuc(a1-2)]Gal(b1-4)GlcNAc
# How it was run: as §1
# [3] = target: Fuc(a1-2)Gal(b1-3)GalNAc(b1-3)Gal
# How it was run: as §1
# [4] = target: Fuc(a1-2)Gal(b1-3)GalNAc(b1-3)Gal(a1-4)Gal(b1-4)Glc
# How it was run: as §1
# [5] = target: Fuc(a1-2)Gal(b1-3)GalNAc(b1-4)[Neu5Ac(a2-3)]Gal(b1-4)Glc
# How it was run: as §1
# Fuc(a1-2)Gal(b1-3)GlcNAc = target: Fuc(a1-2)Gal(b1-3)GlcNAc
# How it was run: as §1
# [6] = target: Fuc(a1-2)Gal(b1-3)GlcNAc(b1-2)Man(a1-3)[Fuc(a1-2)Gal(b1-3)GlcNAc(b1-2)Man(a1-6)]Man(b1-4)GlcNAc(b1-4)GlcNAc
# How it was run: as §1
# [7] = target: Fuc(a1-2)Gal(b1-3)GlcNAc(b1-2)Man(a1-3)[Fuc(a1-2)Gal(b1-3)GlcNAc(b1-2)Man(a1-6)]Man(b1-4)GlcNAc(b1-4)[Fuc(a1-6)]GlcNAc
# How it was run: as §1
# [8] = target: Fuc(a1-2)Gal(b1-3)GlcNAc(b1-3)Gal(b1-4)Glc
# How it was run: as §1
# [9] = target: Fuc(a1-2)Gal(b1-3)GlcNAc(b1-3)GalNAc
# How it was run: as §1
# [10] = target: Fuc(a1-2)Gal(b1-3)GlcNAc(b1-3)[Fuc(a1-3)[Gal(b1-4)]GlcNAc(b1-6)]Gal(b1-4)Glc
# How it was run: as §1
# [11] = target: Fuc(a1-2)Gal(b1-3)GlcNAc(b1-3)[Gal(b1-4)GlcNAc(b1-6)]Gal(b1-4)Glc
# How it was run: as §1
# [12] = target: Fuc(a1-2)Gal(b1-3)GlcNAc(b1-3)[Neu5Ac(a2-6)Gal(b1-4)GlcNAc(b1-6)]Gal(b1-4)Glc
# How it was run: as §1
# [13] = target: Fuc(a1-2)Gal(b1-3)[Fuc(a1-4)]GlcNAc
# How it was run: as §1
# [14] = target: Fuc(a1-2)Gal(b1-3)[Fuc(a1-4)]GlcNAc(b1-2)Man(a1-3)[Fuc(a1-2)Gal(b1-3)[Fuc(a1-4)]GlcNAc(b1-2)Man(a1-6)]Man(b1-4)GlcNAc(b1-4)GlcNAc
# How it was run: as §1
# [15] = target: Fuc(a1-2)Gal(b1-3)[Fuc(a1-4)]GlcNAc(b1-3)[Fuc(a1-3)[Gal(b1-4)]GlcNAc(b1-6)]Gal(b1-4)Glc
# How it was run: as §1
# [16] = target: Fuc(a1-2)Gal(b1-3)[Fuc(a1-4)]GlcNAc(b1-3)[Gal(b1-4)GlcNAc(b1-6)]Gal(b1-4)Glc
# How it was run: as §1
# Fuc(a1-2)Gal(b1-4)Glc = target: Fuc(a1-2)Gal(b1-4)Glc
# How it was run: as §1
# Fuc(a1-2)Gal(b1-4)Glc6S = target: Fuc(a1-2)Gal(b1-4)Glc6S
# How it was run: as §1
# Fuc(a1-2)Gal(b1-4)GlcNAc = target: Fuc(a1-2)Gal(b1-4)GlcNAc
# How it was run: as §1
# [17] = target: Fuc(a1-2)Gal(b1-4)GlcNAc(b1-2)Man(a1-3)[Fuc(a1-2)Gal(b1-4)GlcNAc(b1-2)Man(a1-6)]Man(b1-4)GlcNAc(b1-4)GlcNAc
# How it was run: as §1
# [18] = target: Fuc(a1-2)Gal(b1-4)GlcNAc(b1-2)Man(a1-3)[Fuc(a1-2)Gal(b1-4)GlcNAc(b1-2)Man(a1-6)]Man(b1-4)GlcNAc(b1-4)[Fuc(a1-6)]GlcNAc
# How it was run: as §1
# [19] = target: Fuc(a1-2)Gal(b1-4)GlcNAc(b1-2)[Fuc(a1-2)Gal(b1-4)GlcNAc(b1-4)]Man(a1-3)[Fuc(a1-2)Gal(b1-4)GlcNAc(b1-2)Man(a1-6)]Man(b1-4)GlcNAc(b1-4)GlcNAc
# How it was run: as §1
# [20] = target: Fuc(a1-2)Gal(b1-4)GlcNAc(b1-3)Gal(b1-4)GlcNAc
# How it was run: as §1
# [21] = target: Fuc(a1-2)Gal(b1-4)GlcNAc(b1-3)Gal(b1-4)GlcNAc(b1-3)Gal(b1-4)GlcNAc
# How it was run: as §1
# [22] = target: Fuc(a1-2)Gal(b1-4)GlcNAc(b1-3)GalNAc
# How it was run: as §1
# [23] = target: Fuc(a1-2)Gal(b1-4)GlcNAc(b1-3)[Fuc(a1-2)Gal(b1-4)GlcNAc(b1-6)]GalNAc
# How it was run: as §1
# [24] = target: Fuc(a1-2)Gal(b1-4)GlcNAc6S
# How it was run: as §1
# [25] = target: Fuc(a1-2)Gal(b1-4)[Fuc(a1-3)]GlcNAc
# How it was run: as §1
# [26] = target: Fuc(a1-2)Gal(b1-4)[Fuc(a1-3)]GlcNAc(b1-2)Man(a1-3)[Fuc(a1-2)Gal(b1-4)[Fuc(a1-3)]GlcNAc(b1-2)Man(a1-6)]Man(b1-4)GlcNAc(b1-4)GlcNAc
# How it was run: as §1
# [27] = target: Fuc(a1-2)Gal(b1-4)[Fuc(a1-3)]GlcNAc(b1-2)[Fuc(a1-2)Gal(b1-4)[Fuc(a1-3)]GlcNAc(b1-4)]Man(a1-3)[Fuc(a1-2)Gal(b1-4)[Fuc(a1-3)]GlcNAc(b1-2)Man(a1-6)]Man(b1-4)GlcNAc(b1-4)GlcNAc
# How it was run: as §1
# [28] = target: Fuc(a1-2)Gal(b1-4)[Fuc(a1-3)]GlcNAc(b1-3)Gal(b1-4)[Fuc(a1-3)]GlcNAc
# How it was run: as §1
# [29] = target: Fuc(a1-2)Gal(b1-4)[Fuc(a1-3)]GlcNAc(b1-3)Gal(b1-4)[Fuc(a1-3)]GlcNAc(b1-3)Gal(b1-4)[Fuc(a1-3)]GlcNAc
# How it was run: as §1
# [30] = target: Fuc(a1-2)Gal(b1-4)[Fuc(a1-3)]GlcNAc(b1-3)GalNAc
# How it was run: as §1
# Fuc(a1-2)Gal6S(b1-4)Glc = target: Fuc(a1-2)Gal6S(b1-4)Glc
# How it was run: as §1
# [31] = target: Fuc(a1-2)Gal6S(b1-4)Glc6S
# How it was run: as §1
# [32] = target: Fuc(a1-2)Gal6S(b1-4)GlcNAc
# How it was run: as §1
# Fuc(a1-2)[Gal(a1-3)]Gal = target: Fuc(a1-2)[Gal(a1-3)]Gal
# How it was run: as §1
# [33] = target: Fuc(a1-2)[Gal(a1-3)]Gal(b1-3)GalNAc
# How it was run: as §1
# [34] = target: Fuc(a1-2)[Gal(a1-3)]Gal(b1-3)GlcNAc
# How it was run: as §1
# [35] = target: Fuc(a1-2)[Gal(a1-3)]Gal(b1-3)GlcNAc(b1-2)Man(a1-3)[Fuc(a1-2)[Gal(a1-3)]Gal(b1-3)GlcNAc(b1-2)Man(a1-6)]Man(b1-4)GlcNAc(b1-4)GlcNAc
# How it was run: as §1
# [36] = target: Fuc(a1-2)[Gal(a1-3)]Gal(b1-3)GlcNAc(b1-2)Man(a1-3)[Fuc(a1-2)[Gal(a1-3)]Gal(b1-3)GlcNAc(b1-2)Man(a1-6)]Man(b1-4)GlcNAc(b1-4)[Fuc(a1-6)]GlcNAc
# How it was run: as §1
# [37] = target: Fuc(a1-2)[Gal(a1-3)]Gal(b1-3)GlcNAc(b1-3)GalNAc
# How it was run: as §1
binder,measurement,setting,value
B1,glycan array binding signal (z-score),Fuc(a1-2)Gal,-0.157
same,glycan array binding signal (z-score),Fuc(a1-2)Gal(b1-3)GalNAc,-0.147
same,glycan array binding signal (z-score),[1],-0.267
same,glycan array binding signal (z-score),[2],-0.281
same,glycan array binding signal (z-score),[3],1.06
same,glycan array binding signal (z-score),[4],-0.262
same,glycan array binding signal (z-score),[5],0.035
same,glycan array binding signal (z-score),Fuc(a1-2)Gal(b1-3)GlcNAc,-0.129
same,glycan array binding signal (z-score),[6],-0.034
same,glycan array binding signal (z-score),[7],-0.113
same,glycan array binding signal (z-score),[8],-0.165
same,glycan array binding signal (z-score),[9],-0.129
same,glycan array binding signal (z-score),[10],0.011
same,glycan array binding signal (z-score),[11],0.047
same,glycan array binding signal (z-score),[12],-0.004
same,glycan array binding signal (z-score),[13],-0.073
same,glycan array binding signal (z-score),[14],0.172
same,glycan array binding signal (z-score),[15],-0.156
same,glycan array binding signal (z-score),[16],-0.251
same,glycan array binding signal (z-score),Fuc(a1-2)Gal(b1-4)Glc,-0.056
same,glycan array binding signal (z-score),Fuc(a1-2)Gal(b1-4)Glc6S,-0.133
same,glycan array binding signal (z-score),Fuc(a1-2)Gal(b1-4)GlcNAc,-0.092
same,glycan array binding signal (z-score),[17],0.119
same,glycan array binding signal (z-score),[18],-0.067
same,glycan array binding signal (z-score),[19],0.265
same,glycan array binding signal (z-score),[20],-0.164
same,glycan array binding signal (z-score),[21],0.127
same,glycan array binding signal (z-score),[22],-0.089
same,glycan array binding signal (z-score),[23],-0.055
same,glycan array binding signal (z-score),[24],-0.179
same,glycan array binding signal (z-score),[25],0
same,glycan array binding signal (z-score),[26],0.815
same,glycan array binding signal (z-score),[27],0.139
same,glycan array binding signal (z-score),[28],-0.14
same,glycan array binding signal (z-score),[29],-0.145
same,glycan array binding signal (z-score),[30],1.26
same,glycan array binding signal (z-score),Fuc(a1-2)Gal6S(b1-4)Glc,0.047
same,glycan array binding signal (z-score),[31],-0.243
same,glycan array binding signal (z-score),[32],-0.134
same,glycan array binding signal (z-score),Fuc(a1-2)[Gal(a1-3)]Gal,-0.257
same,glycan array binding signal (z-score),[33],-0.022
same,glycan array binding signal (z-score),[34],0.133
same,glycan array binding signal (z-score),[35],0.002
same,glycan array binding signal (z-score),[36],0.174
same,glycan array binding signal (z-score),[37],-0.098
